Measurements published in the supplement of paper PMC8728848.
This is one part of the list.

How the values were obtained:
Experiment in all cases: glycan array binding signal (z-score within array); higher = stronger binding
Details in all cases: glycan notation: IUPAC condensed, linker removed
[1] = biological target: Neu5Ac(a2-6)Gal(b1-4)GlcNAc(b1-2)Man(a1-3)[Gal(b1-4)GlcNAc(b1-2)Man(a1-6)]Man(b1-4)GlcNAc(b1-4)GlcNAc
Procedure, shortened: (§1)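 The Consortium for Functional Glycomics database supplied 3228 glycan arrays, of which those lacking an available protein sequence were dropped. The binding signal, a within-array Z-score, was averaged across arrays of the same protein sequence and across linkers. Negative scores can be read as non-binding.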

[2] = biological target: Neu5Ac(a2-6)Gal(b1-4)GlcNAc(b1-2)Man(a1-3)[GlcNAc(b1-2)Man(a1-6)]Man(b1-4)GlcNAc(b1-4)GlcNAc
Procedure, shortened: as §1

[3] = biological target: Neu5Ac(a2-6)Gal(b1-4)GlcNAc(b1-2)Man(a1-3)[GlcNAc(b1-2)Man(b1-4)GlcNAc(b1-2)Man(a1-6)]Man(b1-4)GlcNAc(b1-4)GlcNAc
Procedure, shortened: as §1

[4] = biological target: Neu5Ac(a2-6)Gal(b1-4)GlcNAc(b1-2)Man(a1-3)[Neu5Ac(a2-6)Gal(b1-4)GlcNAc(b1-2)Man(a1-6)]Man(b1-4)GlcNAc(b1-4)GlcNAc
Procedure, shortened: as §1

[5] = biological target: Neu5Ac(a2-6)Gal(b1-4)GlcNAc(b1-2)Man(a1-6)[Gal(b1-4)GlcNAc(b1-2)Man(a1-3)]Man(b1-4)GlcNAc(b1-4)GlcNAc
Procedure, shortened: as §1

[6] = biological target: Neu5Ac(a2-6)Gal(b1-4)GlcNAc(b1-2)Man(a1-6)[GlcNAc(b1-2)Man(a1-3)]Man(b1-4)GlcNAc(b1-4)GlcNAc
Procedure, shortened: as §1

[7] = biological target: Neu5Ac(a2-6)Gal(b1-4)GlcNAc(b1-3)Gal(b1-4)GlcNAc
Procedure, shortened: as §1

[8] = biological target: Neu5Ac(a2-6)Gal(b1-4)GlcNAc(b1-3)Gal(b1-4)[Fuc(a1-3)]GlcNAc(b1-3)Gal(b1-4)[Fuc(a1-3)]GlcNAc
Procedure, shortened: as §1

[9] = biological target: Neu5Ac(a2-6)Gal(b1-4)GlcNAc6S
Procedure, shortened: as §1

Neu5Ac(a2-6)GalNAc = biological target: Neu5Ac(a2-6)GalNAc
Procedure, shortened: as §1

[10] = biological target: Neu5Ac(a2-6)GalNAc(b1-4)GlcNAc
Procedure, shortened: as §1

Neu5Ac(a2-8)Neu5Ac = biological target: Neu5Ac(a2-8)Neu5Ac
Procedure, shortened: as §1

[11] = biological target: Neu5Ac(a2-8)Neu5Ac(a2-3)Gal(b1-4)Glc
Procedure, shortened: as §1

[12] = biological target: Neu5Ac(a2-8)Neu5Ac(a2-3)[GalNAc(b1-4)]Gal(b1-4)Glc
Procedure, shortened: as §1

[13] = biological target: Neu5Ac(a2-8)Neu5Ac(a2-8)Neu5Ac
Procedure, shortened: as §1

[14] = biological target: Neu5Ac(a2-8)Neu5Ac(a2-8)Neu5Ac(a2-3)Gal(b1-4)Glc
Procedure, shortened: as §1

[15] = biological target: Neu5Ac(a2-8)Neu5Ac(a2-8)Neu5Ac(a2-3)[GalNAc(b1-4)]Gal(b1-4)Glc
Procedure, shortened: as §1

[16] = biological target: Neu5Ac(a2-8)Neu5Ac(a2-8)Neu5Ac(a2-8)Neu5Ac(a2-3)[GalNAc(b1-4)]Gal(b1-4)Glc
Procedure, shortened: as §1

[17] = biological target: Neu5Ac(b2-6)Gal(b1-4)GlcNAc
Procedure, shortened: as §1

Neu5Ac(b2-6)GalNAc = biological target: Neu5Ac(b2-6)GalNAc
Procedure, shortened: as §1

[18] = biological target: Neu5Ac9Ac(a2-6)Gal(b1-4)GlcNAc
Procedure, shortened: as §1

[19] = biological target: Neu5Gc(a2-3)Gal(b1-3)GlcNAc
Procedure, shortened: as §1

[20] = biological target: Neu5Gc(a2-3)Gal(b1-3)[Fuc(a1-4)]GlcNAc
Procedure, shortened: as §1

Neu5Gc(a2-3)Gal(b1-4)Glc = biological target: Neu5Gc(a2-3)Gal(b1-4)Glc
Procedure, shortened: as §1

[21] = biological target: Neu5Gc(a2-3)Gal(b1-4)GlcNAc
Procedure, shortened: as §1

[22] = biological target: Neu5Gc(a2-3)Gal(b1-4)[Fuc(a1-3)]GlcNAc
Procedure, shortened: as §1

[23] = biological target: Neu5Gc(a2-6)Gal(b1-4)GlcNAc
Procedure, shortened: as §1

Neu5Gc(a2-6)GalNAc = biological target: Neu5Gc(a2-6)GalNAc
Procedure, shortened: as §1

[24] = biological target: Neu5Gc(b2-6)Gal(b1-4)GlcNAc
Procedure, shortened: as §1

B1: MD-2 (Homo sapiens) (protein)
chain: MLPFLFFSTLFSSIFTEAQKQYWVCNSSDASISYTYCDKMQYPISINVNPCIELKGSKGLLHIFYIPRRDLKQLYFNLYITVNTMNLPKRKEVICRGSDDDYSFCRALKGETVNTTISFSFKGIKFSKGKYKCVVEAISGSPEEMLFCLEFVILHQPNSN
glycan array binding signal (z-score) [1]: -0.341 | glycan array binding signal (z-score) [2]: -0.318 | glycan array binding signal (z-score) [3]: -0.331 | glycan array binding signal (z-score) [4]: -0.321 | glycan array binding signal (z-score) [5]: -0.413 | glycan array binding signal (z-score) [6]: -0.338 | glycan array binding signal (z-score) [7]: -0.15 | glycan array binding signal (z-score) [8]: -0.175 | glycan array binding signal (z-score) [9]: -0.067 | glycan array binding signal (z-score) (Neu5Ac(a2-6)GalNAc): -0.355 | glycan array binding signal (z-score) [10]: -0.25 | glycan array binding signal (z-score) (Neu5Ac(a2-8)Neu5Ac): 0.136 | glycan array binding signal (z-score) [11]: -0.305 | glycan array binding signal (z-score) [12]: -0.35 | glycan array binding signal (z-score) [13]: -0.091 | glycan array binding signal (z-score) [14]: -0.369 | glycan array binding signal (z-score) [15]: -0.18 | glycan array binding signal (z-score) [16]: -0.309 | glycan array binding signal (z-score) [17]: -0.288 | glycan array binding signal (z-score) (Neu5Ac(b2-6)GalNAc): -0.296 | glycan array binding signal (z-score) [18]: -0.419 | glycan array binding signal (z-score) [19]: -0.324 | glycan array binding signal (z-score) [20]: -0.393 | glycan array binding signal (z-score) (Neu5Gc(a2-3)Gal(b1-4)Glc): -0.167 | glycan array binding signal (z-score) [21]: -0.291 | glycan array binding signal (z-score) [22]: -0.264 | glycan array binding signal (z-score) [23]: -0.388 | glycan array binding signal (z-score) (Neu5Gc(a2-6)GalNAc): -0.345 | glycan array binding signal (z-score) [24]: -0.381
